Source: PubChem BioAssay (NCATS)
The shares of active, inactive and inconclusive entries below differ from those in the screen. For part of these data: Potencies of inconclusive entries are doubtful fits and often do not repeat. The source made the active and inactive calls. Unless noted, calls come from the whole dose curve; as a rule, active = well fitted curve in the direction sought with a large enough effect; inconclusive = small, poorly fitted or top-dose-only effect, or another doubt; inactive = no such curve, though single readings can be large; an effect the other way counts as inactive or inconclusive.

What was measured:
[1] = AP1 Signaling Pathway (AID 357; active = well fitted curve in either direction with a large enough effect, not every such curve was filed as active; inconclusive = small, poorly fitted or top-dose-only effect, or another doubt; note: top concentration of the series differs between compounds; % is set by controls: 0 for no effect and ±100 for the full control effect); conditions: ME-180 AP-1-bla reporter, EGF-induced, beta-lactamase ratio, 5 h; at 17.2 µM (top of the series) unless noted
How it was run: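 Cells are seeded overnight, exposed to compound titrations and an EC50 level of EGF for 5 hours at 37 °C, then loaded with CCF4 dye for 2.5 hours. Beta-lactamase activity under the AP-1 element is read as a blue/green ratio.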

[2] = Stat Signaling Pathway (AID 446; active = well fitted curve in either direction with a large enough effect, not every such curve was filed as active; inconclusive = small, poorly fitted or top-dose-only effect, or another doubt;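 note: ME-180 cervical cancer cells given 40 pM IL-6 alongside compound; SIE-controlled beta-lactamase reporter measured as 460/530 nm FRET emission ratio; top concentration of the series differs between compounds; % is set by controls: 0 for no effect and ±100 for the full control effect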); conditions: ME-180 SIE beta-lactamase reporter, IL-6 stimulated, 5 h; at 38 µM (top of the series) unless noted
How it was run: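 Screening format detects activators and inhibitors alike: ME-180 SIE-bla cells stimulated at 40 pM IL-6 for 5 hrs with compound, then dual-emission beta-lactamase read at 405 nm excitation.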

[3] = qHTS Assay for Identification of Small Molecule Antagonists for NFkB Signaling Pathway (AID 895; active = well fitted inhibition curve with a large enough effect in the signal ratio, with a control signal flat, not every such curve was filed as active; inconclusive = small, poorly fitted or top-dose-only effect, or effect the other way, or a change in a side signal; the % refers to the signal ratio; note: potency is the fitted concentration of half-maximal effect); conditions: NFkB beta-lactamase reporter cells, FRET ratio 460/530; activity change, negative = inhibition: at 38.3 µM (top of the series) unless noted
How it was run: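 Beta-lactamase reporter read-out (460 and 530 nm emission ratio, 405 nm excitation, 2 hrs substrate loading RT) after 5 hr stimulation with 10 pM TNF alpha in compound-treated NFkB-bla ME-180 cells in low-serum medium.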

[4] = qHTS Assay for Identification of Small Molecule Agonists for Hypoxia Response Element Signaling Pathway (AID 914; active = well fitted activation curve with a large enough effect in the signal ratio, with a control signal flat, not every such curve was filed as active; inconclusive = small, poorly fitted or top-dose-only effect, or effect the other way, or a change in a side signal; the % refers to the signal ratio; note: potency is the fitted concentration of half-maximal effect); conditions: ME-180 HRE-bla reporter, beta-lactamase ratio, CoCl2, 17 h; activation: hits give high values
How it was run: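 Compounds in a titration series were added to ME-180 reporter cells alongside an EC50 level of CoCl2. After 17 hours, beta-lactamase activity was read as the 460nm/530nm emission ratio of CCF4, giving AC50 values.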

[5] = qHTS Assay for Identification of Small Molecule Antagonists for Thrombopoietin (TPO) Signaling Pathway (AID 918); conditions: TPO-dependent cell signaling reporter, antagonist mode; activity change, negative = inhibition: at 38.5 µM (top of the series); note: nearly all actives have a fitted effect of over 60% in size
How it was run: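 Ba/F3 (murine, hTPO-R, GPIIb-luc reporter); overnight IL-3 withdrawal; cpd + TPO 26 pM final (EC50); 24 h 37 C/5% CO2; Steadylite luminescence after 10 min RT.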

[6] = qHTS Assay for Identification of Small Molecule Agonists for NFkB Signaling Pathway (AID 928; calls by dose curve); conditions: NFkB beta-lactamase reporter cells, blue/green ratio
How it was run: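 ME-180 NFkB-bla cells carry a beta-lactamase reporter under an NFkB response element. Compound plus 10 pM TNF alpha (final) was applied for 5 hrs at 37 C. After 2 hrs with LiveBLAzer substrate, 460/530 nm emission was read at 405 nm excitation.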

[7] = target: Muscarinic acetylcholine receptor M1 (Rattus norvegicus) (UniProt P08482); test: qHTS Assay for Antagonists of Acetylcholine Muscarinic M1 Receptor: Kinetic Measurement of Intracellular Calcium Response (AID 943); note: potency is the fitted concentration of half-maximal effect; nearly all actives have a fitted effect of over 75% in size
How it was run: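 Rat M1-CHO cells, 2000/well, overnight → Fluo-4 no-wash dye with probenecid, 1 h 37C → compound 10 min, room temp → basal read 6 s → carbachol EC80 (100 nM) → 4 min kinetic read; peak/basal.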

[8] = target: Muscarinic acetylcholine receptor M1 (Rattus norvegicus) (UniProt P08482); test: qHTS Assay for Antagonists of Acetylcholine Muscarinic M1 Receptor: Measurement of IP-One Response (AID 944); note: potency is the fitted concentration of half-maximal effect; nearly all actives have a fitted effect of over 75% in size
[9] = Validation of Assay for Modulators of Lamin A Splicing (AID 1459; active = well fitted curve in the direction sought with a large enough effect in the signal ratio; inconclusive = small, poorly fitted or top-dose-only effect, or effect the other way, or a change in a side signal; inactive = no such curve, though single readings can be large or run the other way; the % refers to the signal ratio;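 note: cells exposed to compound for two days before reading; 0% is about no effect; ratio rise marks activators and ratio drop marks inhibitors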); conditions: Lamin A splicing dual RFP/GFP fluorescence reporter; Potency: ratio unless noted; ratio change, both ways: at 9.22 µM unless noted
How it was run: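 Splicing correction is reported by an EGFP-containing lamin A minigene in stably transfected S3 HeLa cells, while DsRed2 controls for viability and nonspecific signal. Cells are exposed to compounds for 48 hrs before the GFP over RFP ratio is taken.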

[10] = qHTS Assay for Lipid Storage Modulators (AID 1519; calls by dose curve; note: % is set by controls: 0 for no effect and ±100 for the full control effect); conditions: Drosophila S3 cells, BODIPY lipid droplet/cell ratio, laser cytometry, cells loaded with oleic acid; activity change, negative = inhibition: at 57.5 µM (top of the series) unless noted
How it was run: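 Cells seeded at 5,000 per well were treated with compounds over a concentration series and loaded with oleic acid (400 uM, as added). Lipid droplet fluorescence (488 nm excitation, 500-530 nm channel) was read by laser-scanning cytometry and normalized to 20 uM Triacsin C.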

[11] = target: DNA repair nuclease/redox regulator APEX1 (Homo sapiens) (UniProt P27695); test: qHTS Validation Assay for Inhibitors of the Human Apurinic/apyrimidinic Endonuclease 1 (APE1) (AID 1705; note: potency is the fitted concentration of half-maximal effect)
How it was run: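 Endonuclease activity of human APE1 is followed as dequenching when the enzyme incises a tetrahydrofuran abasic site in a short duplex labelled 5'-TAMRA/3'-BHQ-2 (50 nM final), after 15 min enzyme–compound preincubation at room temperature.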

[12] = target: Endonuclease 4 (Escherichia coli (strain K12)) (UniProt P0A6C1); test: Counterscreen for APE1 Inhibitors: qHTS Validation Assay for Inhibitors of Endonuclease IV (AID 1708); note: potency is the fitted concentration of half-maximal effect
How it was run: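 qHTS concentration-response format; LOPAC1280 tested under APE1-screen conditions. 2 nM enzyme, 15 min compound preincubation at RT, then 50 nM TAMRA/BHQ-2 abasic substrate; kinetic fluorescence read, three reads at 60 s intervals.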

[13] = qHTS for differential inhibitors of proliferation of Plasmodium falciparum line 3D7 (AID 1876); note: potency is the fitted concentration of half-maximal effect
[14] = qHTS for differential inhibitors of proliferation of Plasmodium falciparum line D10 (AID 1877);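 note: potency is the fitted concentration of half-maximal effect; parasites grown with compound for 72 h before DNA staining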
[15] = target: RecQ-like DNA helicase BLM (Homo sapiens) (UniProt P54132); test: qHTS Validation Assay for Inhibitors of Bloom's syndrome helicase (BLM) (AID 2364); note: potency is the fitted concentration of half-maximal effect
How it was run: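 Forked 20-bp duplex substrate (200 nM, TAMRA/BHQ-2) plus 2 mM ATP added after 15 min compound preincubation with 50 nM enzyme, pH 8.0, poly(dI-dC) 2.5 ug/ml. Strand separation followed by fluorescence (525/598 nm) over 2 h, normalized to enzyme-free and DMSO controls.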

[16] = target: DNA repair nuclease/redox regulator APEX1 (Homo sapiens) (UniProt P27695); test: Confirmation qHTS Assay for Inhibitors of the Human Apurinic/apyrimidinic Endonuclease 1 (APE1) (AID 2572);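 note: fluorescence gain from purified APE1 cutting a TAMRA/BHQ-2 THF abasic duplex; % is set by controls: 0 for no effect and ±100 for the full control effect; nearly all actives have a fitted effect of over 30% in size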
How it was run: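 Enzyme and test compound were incubated for 15 min at room temperature, after which a 50 nM (final) double-stranded abasic-site substrate bearing 5'-TAMRA and 3'-BHQ-2 was added. Incision was followed as fluorescence increase over three reads.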

[17] = Validation screen for small molecules that induce DNA re-replication in MCF 10A normal breast cells (AID 463097); note: potency is the fitted concentration of half-maximal effect; nearly all actives have a fitted effect of over 60% in size
How it was run: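 DNA re-replication was detected as a rise in nuclei with elevated Hoechst fluorescence after a 48 hr compound exposure of MCF 10A cells at 37 C.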

[18] = test system: Zika virus NS2B-NS3 protease; test: Primary screen GU AMC qHTS for Zika virus inhibitors (AID 1347154); note: potency is the fitted concentration of half-maximal effect; nearly all actives have a fitted effect of over 70% in size
How it was run: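 Fluorogenic AMC-substrate cleavage by noncovalent NS2B-NS3 protease complex (25 nM, pH 8.0 Tris buffer with Tween 20) followed for 15 minutes at room temperature (~20% conversion). Percent inhibition from ex340/em450 signal change, fitted by 4-parameter Hill equation.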
Tags give direction and shape of the fitted curve or compound fluorescence and quenching.

Chain of UniProt P27695 (P27695 whole entry, looked up): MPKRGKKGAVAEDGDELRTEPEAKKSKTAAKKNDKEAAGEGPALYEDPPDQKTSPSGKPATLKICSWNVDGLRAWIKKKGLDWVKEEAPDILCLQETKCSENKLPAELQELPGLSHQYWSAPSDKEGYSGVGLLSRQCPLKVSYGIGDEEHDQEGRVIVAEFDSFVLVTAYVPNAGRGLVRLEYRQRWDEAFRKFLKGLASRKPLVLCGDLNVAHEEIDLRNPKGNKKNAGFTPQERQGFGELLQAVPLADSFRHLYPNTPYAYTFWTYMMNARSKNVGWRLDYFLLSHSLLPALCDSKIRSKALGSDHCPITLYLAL
Chain of UniProt P08482 (P08482 whole entry, looked up): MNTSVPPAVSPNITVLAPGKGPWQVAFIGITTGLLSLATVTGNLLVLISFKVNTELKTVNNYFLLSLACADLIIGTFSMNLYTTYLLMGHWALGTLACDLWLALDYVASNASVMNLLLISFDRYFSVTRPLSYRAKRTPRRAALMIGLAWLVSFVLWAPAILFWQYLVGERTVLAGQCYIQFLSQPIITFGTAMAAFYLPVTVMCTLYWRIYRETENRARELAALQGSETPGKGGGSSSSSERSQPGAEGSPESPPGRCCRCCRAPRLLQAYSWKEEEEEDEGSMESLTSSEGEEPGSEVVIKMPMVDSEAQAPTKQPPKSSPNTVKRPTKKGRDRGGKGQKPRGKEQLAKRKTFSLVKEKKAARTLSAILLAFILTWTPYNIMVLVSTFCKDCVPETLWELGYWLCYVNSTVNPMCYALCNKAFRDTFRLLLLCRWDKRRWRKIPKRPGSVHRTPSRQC
Chain of UniProt P54132 (P54132 whole entry, looked up): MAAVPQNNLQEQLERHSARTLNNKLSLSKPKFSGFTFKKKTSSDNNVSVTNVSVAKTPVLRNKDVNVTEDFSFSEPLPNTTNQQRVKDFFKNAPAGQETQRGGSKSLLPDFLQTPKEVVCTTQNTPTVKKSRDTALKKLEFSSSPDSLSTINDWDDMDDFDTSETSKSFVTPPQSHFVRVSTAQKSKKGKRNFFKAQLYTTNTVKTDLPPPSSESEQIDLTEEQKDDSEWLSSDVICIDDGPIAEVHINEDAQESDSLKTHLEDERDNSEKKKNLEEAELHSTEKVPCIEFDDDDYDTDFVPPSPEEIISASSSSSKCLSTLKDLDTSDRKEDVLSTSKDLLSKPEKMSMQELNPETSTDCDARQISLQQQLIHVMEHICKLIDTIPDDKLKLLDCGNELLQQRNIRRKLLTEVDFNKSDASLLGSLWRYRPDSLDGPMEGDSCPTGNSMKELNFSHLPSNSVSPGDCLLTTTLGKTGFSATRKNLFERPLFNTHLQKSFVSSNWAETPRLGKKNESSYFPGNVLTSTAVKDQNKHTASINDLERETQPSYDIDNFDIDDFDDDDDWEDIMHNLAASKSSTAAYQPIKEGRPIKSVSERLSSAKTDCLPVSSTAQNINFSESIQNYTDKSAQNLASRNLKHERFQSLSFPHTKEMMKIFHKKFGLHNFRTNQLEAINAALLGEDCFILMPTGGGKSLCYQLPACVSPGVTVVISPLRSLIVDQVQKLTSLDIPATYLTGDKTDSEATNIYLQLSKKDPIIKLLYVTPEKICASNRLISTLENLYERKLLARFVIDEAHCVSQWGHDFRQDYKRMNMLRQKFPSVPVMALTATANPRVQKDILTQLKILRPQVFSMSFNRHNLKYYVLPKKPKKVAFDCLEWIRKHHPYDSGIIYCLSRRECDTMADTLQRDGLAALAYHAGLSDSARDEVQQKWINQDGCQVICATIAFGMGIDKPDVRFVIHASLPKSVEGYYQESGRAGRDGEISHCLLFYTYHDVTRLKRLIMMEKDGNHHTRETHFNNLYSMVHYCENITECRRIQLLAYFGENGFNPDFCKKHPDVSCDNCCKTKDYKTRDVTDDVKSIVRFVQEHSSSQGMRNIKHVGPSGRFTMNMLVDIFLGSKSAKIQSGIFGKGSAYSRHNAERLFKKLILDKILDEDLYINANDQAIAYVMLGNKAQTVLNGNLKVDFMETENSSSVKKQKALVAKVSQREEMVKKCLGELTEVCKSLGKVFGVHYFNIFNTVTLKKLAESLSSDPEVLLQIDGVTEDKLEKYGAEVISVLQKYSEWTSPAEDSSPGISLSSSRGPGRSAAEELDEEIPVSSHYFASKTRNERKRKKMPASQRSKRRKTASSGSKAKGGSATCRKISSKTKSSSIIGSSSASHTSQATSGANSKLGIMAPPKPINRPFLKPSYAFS

CCc1c(C(=O)OC)ncc2[nH]c3cc(OC)c(OC)cc3c12
inconclusive: activity change, negative = inhibition [1] -58.1% [inhibitor] [at 38 µM] | activity, negative = inhibition [2] -55% [inhibitor] | Potency [4] 10 µM [inhibitor, partial curve] | activity change, negative = inhibition [5] 10% [phenotype inactive] | Potency [6] 5.62 µM [inhibitor, partial curve] | Potency [7] 3.16 µM [inhibitor, partial curve, poor fit] | Potency [8] 15.8 µM [inhibitor, partial curve, poor fit] | ratio change, both ways [9] -18.9% | activity change, negative = inhibition [10] 1.61% | Potency [12] 10 µM [inhibitor, partial curve] | Potency [14] 14.1 µM [inhibitor, partial curve] | Potency [15] 8.91 µM [inhibitor, full curve, poor fit] | Potency [17] 15.8 µM [activator, single point] | Potency [18] 37.7 µM [inhibitor, single point]
inactive: Potency [16]
active: Potency [3] 5.62 µM | Potency [11] 6.31 µM | Potency [13] 12.6 µM
